Reference: PubChem BioAssay AID1460 (National Center for Advancing Translational Sciences (NCATS), 2008)
Where “and” joins values, the source holds several entries; their conditions need not be identical. Identical values can stand only once. Hit rate of the full screen: of about 270,000 compounds, about 5,800 (2.1%) were called active. The shares of active, inactive and inconclusive entries below differ from those in the screen. The call rests on the fitted dose curve; in most records, active means well fitted inhibition curve with a large enough effect; inconclusive means small, poorly fitted or top-dose-only effect; inactive means flat fitted curve, though single readings scatter. Potencies beside an inconclusive call are fits to weak or partial responses and may not hold up.
Further: nearly all actives have a fitted effect of over 55% in size.
Potency means the concentration at half of the fitted maximal effect; tags describe the fitted curve by direction and shape.

These molecules were tested against Microtubule-associated protein tau (Homo sapiens) (UniProt P10636) (assay: qHTS for Inhibitors of Tau Fibril Formation, Thioflavin T Binding). Details: recombinant tau K18 P301L, heparin-induced fibrillization, ThT fluorescence; series mostly up to 57.4 µM.
Sequence of UniProt P10636 (P10636 whole entry, looked up): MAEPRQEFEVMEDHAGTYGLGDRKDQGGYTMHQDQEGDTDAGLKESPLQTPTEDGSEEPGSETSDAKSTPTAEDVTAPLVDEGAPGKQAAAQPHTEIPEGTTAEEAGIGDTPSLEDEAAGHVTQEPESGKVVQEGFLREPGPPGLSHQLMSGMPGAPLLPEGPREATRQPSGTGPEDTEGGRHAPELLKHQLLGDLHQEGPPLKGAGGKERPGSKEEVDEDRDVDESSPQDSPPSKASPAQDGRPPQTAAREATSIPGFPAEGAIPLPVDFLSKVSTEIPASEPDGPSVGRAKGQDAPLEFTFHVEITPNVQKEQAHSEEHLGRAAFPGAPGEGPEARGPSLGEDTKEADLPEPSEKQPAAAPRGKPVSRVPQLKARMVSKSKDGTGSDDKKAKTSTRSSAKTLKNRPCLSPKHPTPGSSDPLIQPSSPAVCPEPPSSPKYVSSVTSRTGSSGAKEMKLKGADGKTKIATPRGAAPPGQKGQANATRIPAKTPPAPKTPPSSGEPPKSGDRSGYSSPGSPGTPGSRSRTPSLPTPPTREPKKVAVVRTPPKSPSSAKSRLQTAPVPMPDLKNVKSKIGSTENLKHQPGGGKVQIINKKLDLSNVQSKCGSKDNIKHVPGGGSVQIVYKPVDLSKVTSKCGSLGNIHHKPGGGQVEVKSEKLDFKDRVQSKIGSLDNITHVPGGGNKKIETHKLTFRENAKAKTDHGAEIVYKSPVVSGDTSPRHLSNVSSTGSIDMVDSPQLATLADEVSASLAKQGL
In short: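 Fibril formation assay: tau K18 P301L at 15 uM with trace Alexa 594 label, heparin inducer 20 uM, pH 7 sodium acetate buffer, 37 C for 6 hr; endpoint ThT signal.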
With `CCOC(=O)c1cc2sccc2n1Cc1ccccc1` the Potency was inconclusive: 28.2 µM [inhibitor, partial curve]. With `CCn1c2ccccc2c2nnc(SCC(=O)Nc3c(C)n(C)n(-c4ccccc4)c3=O)nc21` the Potency was “inactive”. With `CC1CCCC/C1=N\NC(=S)NCCc1ccccc1` (stereo not given) the Potency was inconclusive: 28.2 µM [inhibitor, single point]. For `CCOC(=O)c1ccc(NC(=O)c2nc[nH]c2C(=O)N[C@@H](CC(C)C)C(=O)OC(C)(C)C)cc1`, the Potency was inconclusive: 0.891 µM [activator, full curve]. In the case of `COc1cccc(COC(=O)c2nn(-c3ccccc3)nc2N)c1`, the Potency is reported as inconclusive: 31.6 µM [inhibitor, partial curve, poor fit] and inconclusive: 20 µM [inhibitor, single point]. In the case of `Cc1ccc(C(=O)N/N=C\c2ccc([N+](=O)[O-])o2)cn1`, the Potency is reported as inconclusive: 15.8 µM [inhibitor, partial curve]. `CN1CC(=O)N(CC(=O)N2CCC(Cc3ccccc3)CC2)C1=O` was tested, and the Potency was “inactive”. In the case of `COc1cccc(OCc2nc3ccccc3n2Cc2ccccc2)c1`, the Potency is reported as inconclusive: 25.1 µM [inhibitor, partial curve]. For `CCOC(=O)c1c(NC(=O)CSc2nnnn2-c2ccc(OC)cc2)sc(C)c1C`, the Potency was active: 31.6 µM. In the case of `COc1ccc(-n2nc3cc(C)c(NC(=O)COc4cccc(C)c4)cc3n2)cc1`, the Potency is reported as inconclusive: 3.55 µM [inhibitor, full curve]. In the case of `CCOC(=O)c1c(NC(=O)CN2CCN(C(=O)c3ccco3)CC2)sc2c1CCCC2`, the Potency is reported as inconclusive: 31.6 µM [inhibitor, single point]. In the case of `Nc1ccccc1C(=O)N/N=C1\C2CN3CCN(C2)CC1(c1ccccc1)C3`, the Potency is reported as “inactive”. With `COc1ccc(Nc2cc(C(=O)NCCCN(C)Cc3ccccc3)c3ccccc3n2)cc1OC` the Potency was inconclusive: 28.2 µM [inhibitor, partial curve]. For `COCCOC(=O)C1=C(C)OC(N)=C(C#N)C1c1ccco1` (stereo not given), the Potency was “inactive”. In the case of `Cc1[nH]n(-c2ccc(Cl)cc2)c(=O)c1C=Nc1ccc(S(=O)(=O)N2CCOCC2)cc1`, the Potency is reported as inconclusive: 15.8 µM [inhibitor, partial curve]. With `CC1=C(C(=O)Nc2ccc(Cl)cc2)C(c2cccs2)n2nc(SCc3cccc(Cl)c3)nc2N1` (stereo not given) the Potency was “inactive”. In the case of `Cc1cn2c(=O)cc(COC(=O)c3cccc(NC(=O)C(C)Oc4ccccc4)c3)nc2s1` (stereo not given), the Potency is reported as “inactive”. With `Cc1ccccc1NC(=O)CSc1ncc2c(n1)-c1ccccc1N(C)S2(=O)=O` the Potency was “inactive”. With `CCC(C)C(=O)Nc1nc(C)c(-c2csc(Nc3ccccc3OC)n2)s1` (stereo not given) the Potency was inconclusive: 10 µM [inhibitor, partial curve]. In the case of `COc1cccc(/C=N/n2cnc3cc(C)c(C)cc32)c1OC`, the Potency is reported as inconclusive: 7.08 µM [inhibitor, partial curve]. With `O=C(NCc1cccnc1)C(=O)NCC1CCCO1` (stereo not given) the Potency was “inactive”. For `Cc1cc(/C=C(\C#N)C(=O)NCc2cccs2)c(C)n1-c1ccccc1F`, the Potency was inconclusive: 31.6 µM [inhibitor, partial curve, poor fit]. With `Cc1cc(C)nc(NC(=O)c2csnn2)c1` the Potency was inconclusive: 5.62 µM [inhibitor, partial curve]. For `COc1ccc(N(C)S(=O)(=O)c2cccc(C(=O)NC3=NCCS3)c2)cc1`, the Potency was “inactive”. For `Cc1cccc(NN=C2c3ccccc3-c3ccccc32)c1`, the Potency was inconclusive: 7.08 µM [inhibitor, partial curve]. `CCOc1cccc(NC(=O)CSc2ncc(-c3ccc(Cl)cc3)[nH]2)c1` was tested, and the Potency was inconclusive: 14.1 µM [inhibitor, partial curve]. In the case of `C=CCSc1cc(C)nc2c(-c3ccccc3)cnn12`, the Potency is reported as “inactive”. With `COc1ccc(N2CCN(CC(O)COc3ccc(C)c(C)c3)CC2)cc1` (stereo not given) the Potency was inconclusive: 6.31 µM [inhibitor, partial curve, poor fit]. In the case of `Cn1c(-c2ccc(Br)o2)nc2ccccc21`, the Potency is reported as “inactive”. `CCOC(=O)c1cccc(NC(=O)N2Cc3ccccc3Oc3ncccc32)c1` was tested, and the Potency was “inactive”. In the case of `O=C1c2ccccc2C(=O)c2c(NCCCN(CCO)CCO)cccc21`, the Potency is reported as active: 14.1 µM. With `CCOc1ccc(Br)cc1C1C(C(=O)Nc2ccccc2OC)=C(C)Nc2nnnn21` (stereo not given) the Potency was “inactive”. In the case of `CCc1ccc2oc(-c3cccc(NC(=O)c4ccc(-c5cccc([N+](=O)[O-])c5)o4)c3)nc2c1`, the Potency is reported as inconclusive: 3.16 µM [inhibitor, full curve]. For `CCN1C(C(=O)c2ccccc2)=C(OC(=O)c2ccc(Cl)cc2)c2ccccc2S1(=O)=O`, the Potency was inconclusive: 15.8 µM [inhibitor, single point]. For `COc1ccc(C(=O)/C=C/N(C)C)cc1OC`, the Potency was inconclusive: 15.8 µM [inhibitor, partial curve]. For `Cc1nc(N)sc1-c1csc(N(C)c2ccc(O)cc2)n1`, the Potency was active: 15.8 µM. For `Cn1c(Cl)c(C(=O)Nc2ccc(Cl)cc2)c2ccccc21`, the Potency was inconclusive: 0.794 µM [inhibitor, full curve, poor fit]. In the case of `COc1ccc(-c2csc3[nH]c(=S)n(-c4ccccc4)c(=O)c23)cc1OC`, the Potency is reported as inconclusive: 11.2 µM [inhibitor, partial curve]. `CC1CN(c2ccc([N+](=O)[O-])cc2C#N)CC(C)O1` (stereo not given) was tested, and the Potency was “inactive”. With `Cn1c(C(=O)N2CCN(c3ccc(Cl)cc3)CC2)cc2c(=O)[nH]c3ccccc3c21` the Potency was inconclusive: 39.8 µM [inhibitor, partial curve, poor fit]. `Cc1ccc(CN2CCN(/N=C/C=C/c3ccccc3[N+](=O)[O-])CC2)cc1` was tested, and the Potency was inconclusive: 25.1 µM [inhibitor, single point]. With `CN(C)c1nc(N/N=C/c2ccccc2O)nc(Nc2ccc(F)cc2)n1` the Potency was inconclusive: 39.8 µM [activator, single point]. With `S=c1nc(-c2ccccc2)c(-c2ccccc2)n[nH]1` the Potency was inconclusive: 3.16 µM [inhibitor, full curve, poor fit]. In the case of `CCN1C(=O)/C(=C/c2cc(C)n(C)c2C)SC1=Nc1ccc(OC)cc1`, the Potency is reported as inconclusive: 25.1 µM [inhibitor, partial curve]. `COCCN(C(=O)Nc1ccc(OC)cc1OC)C1CCN(C(C)C)CC1` was tested, and the Potency was “inactive”. With `COc1ccc2oc(=O)c(C(=O)Nc3cccc(C)c3)cc2c1` the Potency was inconclusive: 7.94 µM [inhibitor, partial curve]. In the case of `O=C(NCc1ccco1)c1cc(-c2ccccc2)c(N2CCOCC2)s1`, the Potency is reported as inconclusive: 25.1 µM [inhibitor, partial curve]. With `Cn1c(NCc2ccccc2O)nc2ccccc21` the Potency was “inactive”. In the case of `CCOC(=O)c1ccc(-c2ccc(/C=C(\C#N)C(=O)Nc3cccc(C)c3)o2)cc1`, the Potency is reported as inconclusive: 0.631 µM [inhibitor, full curve]. In the case of `Cc1ccc(NC(=O)CC2Sc3ccccc3NC2=O)c(C)c1` (stereo not given), the Potency is reported as “inactive”. In the case of `Cc1c(C(=O)Oc2ccc(Cl)cc2)n(C)oc1=O`, the Potency is reported as inconclusive: 20 µM [inhibitor, single point]. In the case of `COc1ccc(-c2cn(-c3ccc(C)cc3C)c(=O)[nH]2)cc1OC`, the Potency is reported as inconclusive: 11.2 µM [inhibitor, partial curve]. With `O=C(c1ccccc1)N(Cc1nc2ccccc2c(=O)[nH]1)C1CCCCC1` the Potency was “inactive”. In the case of `Cn1cc(Cl)c(-c2n[nH]c(=S)n2-c2ccccc2)n1`, the Potency is reported as “inactive”. With `Cc1ccc(-n2ncc3c(Nc4ccc5c(c4)OCCO5)ncnc32)cc1C` the Potency was inconclusive: 0.794 µM [inhibitor, full curve]. With `CSC1=C(C#N)C(c2ccccc2Cl)C2=C(N1)c1ccccc1C2=O` (stereo not given) the Potency was active: 28.2 µM. With `CCOC(=O)N1CCN(C(=O)c2c(N)no[n+]2[O-])CC1` the Potency was active: 25.1 µM. In the case of `O=C(Nc1cccc(-c2csc(Nc3cccc(C(F)(F)F)c3)n2)c1)c1ccccc1`, the Potency is reported as inconclusive: 7.94 µM [inhibitor, partial curve]. In the case of `COc1ccc(-c2nc(SCC(=O)NC3CCCC3)c(-c3ccccc3)[nH]2)cc1OC`, the Potency is reported as inconclusive: 31.6 µM [inhibitor, single point]. For `CCN(CCCNC(=O)C1CCC(=O)N1Cc1ccccc1Cl)c1cccc(C)c1` (stereo not given), the Potency was inconclusive: 35.5 µM [inhibitor, partial curve, poor fit]. In the case of `O=C(Nc1ccc(Cn2cccn2)cc1)c1ccc(COc2cccc(Br)c2)cc1`, the Potency is reported as inconclusive: 25.1 µM [inhibitor, single point]. In the case of `O=C(CCNc1ccccc1)c1cccc([N+](=O)[O-])c1`, the Potency is reported as “inactive”. In the case of `Cc1ccsc1/C=C/c1ccc2ccccc2n1`, the Potency is reported as inconclusive: 12.6 µM [inhibitor, partial curve]. For `CC(C)(C)c1ccc(C(=O)NC(=S)Nc2nc3c(s2)CCCC3)cc1`, the Potency was inconclusive: 5.62 µM [inhibitor, full curve]. With `COc1ccc(Nc2ccc(N3C(=O)CCCC3=O)cc2[N+](=O)[O-])c(OC)c1` the Potency was inconclusive: 17.8 µM [inhibitor, partial curve]. With `Cc1ncc(CO)c(/C=N/NC(=S)Nc2ccc(F)cc2)c1O` the Potency was inconclusive: 14.1 µM [inhibitor, partial curve]. `N#Cc1ccc(C(=O)Nc2nc(-c3cccs3)c(C(=O)C(F)(F)F)s2)cc1` was tested, and the Potency was inconclusive: 12.6 µM [inhibitor, partial curve]. With `CN(/C(=N\S(=O)(=O)c1ccccc1)C(F)(F)F)c1ccccc1` the Potency was “inactive”. In the case of `CCOC(=O)C1CCCN(c2ncnc3c2cnn3-c2ccc(OC)cc2)C1` (stereo not given), the Potency is reported as inconclusive: 20 µM [inhibitor, partial curve]. In the case of `CNc1nc(OCC(F)(F)F)nc(N2CCOCC2)n1`, the Potency is reported as “inactive”.
